The text below walks through data of ChEMBL document CHEMBL4888484, “Replenishing the malaria drug discovery pipeline: Screening and hit evaluation of the MMV Hit Generation Library 1 (HGL1) against asexual blood stage Plasmodium falciparum ,using a nano luciferase reporter read-out” (2022).

Among all 150,000 compounds or so, about 540 (0.36%) showed an effect of 50% or more. The list shows a part of the results.

The subject of the assay is Plasmodium falciparum. Put plainly: Primary screen in NF54 nanoGlo assay, in single point, at 2uM, 72h; a lower Z score goes with more inhibition. It counts as functional, Erythrocyte. The settings on record: timepoint 72 hour.
For `CC(C)CCN(CC(=O)N1CCc2sccc2[C@@H]1COc1ccccc1)C(=O)c1cccs1`, the “% Inhibition” value is -2% and the Z score came to 0.26.

`CC(O)C(NC(=O)C1CCCC1)C(=O)NCC1CCc2ccccc21` (configuration not stated): the “% Inhibition” value is on record as -17% and the Z score is 2.67.

Regarding `Cc1nc2cc(NC(=O)c3ccc4cc[nH]c4c3)ccc2[nH]1`, the “% Inhibition” value is -1% and the Z score amounted to 0.15.

As for `COc1cccc([C@H]2CC(O)=Nc3nc(N4CCOCC4)sc32)c1OCC(C)C`, the “% Inhibition” value is -5% and the Z score is on record as 0.57.

On to `CCCc1ncc(C(=O)O[C@H]2CCC[C@@H]2OC)s1`, for which the “% Inhibition” value was -5% and the Z score was 0.86.

On to `Cc1cccn2c(CC(=O)NC(c3ccccn3)[C@H]3C[C@@H](O)C3)cnc12` (some centres not stated), for which the “% Inhibition” value is reported as -15% and the Z score is given as 1.81.

Turning to `CC1(C)CC(NC(=O)Cc2cccs2)CC(C)(C)N1`, the “% Inhibition” value is recorded as -14% and the Z score stood at 1.81.

With `c1ccc(-c2csc(CN3CCC[C@@H]3Cn3cncn3)c2)cc1`, the “% Inhibition” value is recorded as 5% and the Z score is reported as -0.75.

For the compound `CN(Cc1ccccc1O)C(=O)NCCC(c1ccccc1)c1ccccc1`, the “% Inhibition” value was -5% and the Z score is 0.57.

As to `CCOc1ncccc1C(=O)Nc1ccc2c(c1)OCCO2`, the “% Inhibition” value is given as -15% and the Z score was 2.65.

For `Cn1cc(C(=O)NCCCc2ccccc2)nn1`, the “% Inhibition” value is -5% and the Z score came to 0.69.

With `CCOC[C@@H](O)CN(Cc1ccc(F)cc1)Cc1c(-c2ccccc2)noc1N1CCOCC1`, the “% Inhibition” value is given as -6% and the Z score was determined as 0.83.

Turning to `CCCc1c(-c2ccccc2)nc(N2CCN(Cc3ccc4c(c3)OCO4)CC2)[nH]c1=O`, the “% Inhibition” value is -9% and the Z score was 1.24.

For `O=C(NCCc1ccccn1)c1coc(CN(Cc2ccc3c(c2)OCO3)Cc2ccc3c(c2)OCO3)n1`, the “% Inhibition” value is -18% and the Z score is given as 1.68.

Take `Cc1cc(N2CCn3nc(CN4C[C@@H]5CCC[C@H](C4)C(=O)N5)cc3C2)nc(N)n1`: the “% Inhibition” value was -8% and the Z score was determined as 1.26.

In the case of `COc1cccc(C(=O)N2CCN(C(=O)Cc3ccc(Cl)c(Cl)c3)CC2)c1`, the “% Inhibition” value is reported as -1% and the Z score was determined as 0.14.

On to `CC(C)n1ccc(-c2nnc(NC(=O)C(C)(C)C)o2)n1`, for which the “% Inhibition” value is -14% and the Z score was 2.1.

`CCc1nnsc1C(=O)Nc1ccc2oc(C)nc2c1`: the “% Inhibition” value is reported as -6% and the Z score is recorded as 0.82.

Take `CCc1n[nH]c(NS(=O)(=O)c2ccc3c(c2)OCCO3)n1`: the “% Inhibition” value worked out at 10% and the Z score is -1.32.

On to `COC1(c2nccn2C)CCN(c2nc3cccc(F)c3o2)CC1`, for which the “% Inhibition” value is reported as -6% and the Z score was determined as 1.12.

As to `CN1[C@@H](c2ccccc2Cl)[C@@H](C(=O)N2CCC(CO)CC2)C[C@@]1(C)C(=O)O`, the “% Inhibition” value was found to be 2% and the Z score is -0.18.

Turning to `CCCC(=O)N(CCC)CC(=O)N(Cc1ccco1)C[C@H]1CCCO1`, the “% Inhibition” value is given as -11% and the Z score amounted to 1.51.

Take `CCOC(=O)[C@@H](NC(C)=O)C(=O)Nc1c(C)cccc1C`: the “% Inhibition” value is reported as -3% and the Z score was found to be 0.41.

As for `c1ccc(CCCN2CCCN(Cc3ncc[nH]3)CC2)cc1`, the “% Inhibition” value is -6% and the Z score is reported as 1.2.

As to `N#Cc1ncoc1N1CCC(C(N)=O)CC1`, the “% Inhibition” value was -1% and the Z score is on record as 0.11.

Turning to `Cn1nccc1C(=O)N1CCC2(CCCCO2)CC1`, the “% Inhibition” value is recorded as -5% and the Z score worked out at 0.83.

Consider `Cc1ccc(-n2nc(NC(=O)NCCc3cccnc3C)cc2C)cc1`, for which the “% Inhibition” value is -3% and the Z score is 0.51.

For the compound `Cc1cc(NC(=O)N(C)Cc2ccco2)ccc1OC1CCOCC1`, the “% Inhibition” value was -5% and the Z score is given as 0.91.

`CCOc1cc(CNC(=O)c2cccc(NC(=O)c3nnc(C)s3)c2)cc(OCC)c1OCC`: the “% Inhibition” value is listed as -6% and the Z score turned out to be 0.84.

Regarding `CS(=O)(=O)C1(CNS(=O)(=O)CC23CCC(CC2)CC3)CC1`, the “% Inhibition” value is recorded as -6% and the Z score was 0.6.

On to `Cc1ccsc1-c1cnc2n1CCOC2`, for which the “% Inhibition” value is reported as -2% and the Z score worked out at 0.28.

In the case of `N[C@H]1CCCCc2cc(Br)ccc21`, the “% Inhibition” value is recorded as -4% and the Z score stood at 0.58.

Turning to `COc1ccc(-c2c(C)nn(C)c2NC(=O)CCn2nc(C)c(C(C)=O)c2C)cc1`, the “% Inhibition” value is given as -10% and the Z score stood at 1.82.

As to `Cc1n[nH]c(C2CN(C3CCc4ccccc4NC3=O)CCO2)n1` (configuration not stated), the “% Inhibition” value is -8% and the Z score was found to be 0.87.

`O=C(c1nc2sccn2c1CN(CCO)Cc1cccs1)N1CCCC1`: the “% Inhibition” value was -2% and the Z score was 0.36.

As to `CCOCCCCNC(=O)N1CCCC2CCCC21` (configuration not stated), the “% Inhibition” value is recorded as -2% and the Z score came out at 0.22.

Turning to `N#CC1(NC(=O)c2ccc3c(c2O)CCCC3)CCCC1`, the “% Inhibition” value was 9% and the Z score is given as -1.06.

Take `Cc1ccc(-c2ccccc2-c2cn(Cc3cc(O)ncn3)nn2)o1`: the “% Inhibition” value is reported as -6% and the Z score is given as 1.02.

In the case of `Cc1cc(C(=O)NC2CC(F)(F)C2)oc1C`, the “% Inhibition” value is recorded as -5% and the Z score is 0.9.

With `O=C(NCCc1ccccc1)NC1CCCC1`, the “% Inhibition” value was -11% and the Z score is 2.11.

Take `Cc1ccsc1C(=O)N(CCN(C)C)C1CCOCC1`: the “% Inhibition” value is -4% and the Z score is given as 0.66.

Turning to `CCCc1cc(-c2nc(-c3ccc4[nH]cnc4c3)no2)no1`, the “% Inhibition” value is given as -8% and the Z score came to 1.62.

`CCN(CC)C(=O)CN1CCCN(c2cc(OC)ncn2)CC1`: the “% Inhibition” value came to 10% and the Z score is recorded as -1.26.

Turning to `Cc1c(Br)cncc1NC(=O)C[C@H]1CCCCO1`, the “% Inhibition” value worked out at 3% and the Z score is reported as -0.65.

In the case of `CCc1ccc(Cn2nc(CC(N)=O)nc2-c2cnn3ccn(C)c23)cc1`, the “% Inhibition” value was -24% and the Z score is 2.21.

Regarding `CN1CCCN(CC(=O)N2C[C@@H]3CC[C@@H](C3)C2)CC1`, the “% Inhibition” value was -12% and the Z score turned out to be 2.

As for `Cc1ccc2c(c1)C(NC(=O)NCCC1CCCCO1)CO2` (configuration not stated), the “% Inhibition” value was -7% and the Z score is on record as 0.84.

For the compound `CC(C)Oc1cccc(-c2c[nH]c([C@H]3CC(=O)N(C4CC4)C3)n2)c1`, the “% Inhibition” value is given as -7% and the Z score is given as 1.11.

With `CC(C)c1nccc(N2CCC3CCC(C2)S3(=O)=O)n1` (configuration not stated), the “% Inhibition” value is given as -6% and the Z score is 1.23.

Take `CC1(C)C(NCC2CCS(=O)(=O)C2)CC1OCc1ccccc1` (configuration not stated): the “% Inhibition” value is -3% and the Z score stood at 0.39.

Turning to `Oc1cccc2c1C[C@@H](NCc1ccncc1Cl)C2`, the “% Inhibition” value is on record as -5% and the Z score is 0.48.

For `Cc1cccc(CNC(=O)c2cc(C)[nH]c(=O)c2)n1`, the “% Inhibition” value is listed as -6% and the Z score is 1.17.

On to `Cc1cc(Cn2cc(C(c3ccccc3)c3ccccc3)nn2)no1`, for which the “% Inhibition” value was found to be 21% and the Z score was 0.53.

In the case of `CN(C[C@H]1CCCCO1)C(=O)c1ccc2nc(-c3ccc(F)cc3)cn2c1`, the “% Inhibition” value is recorded as -10% and the Z score is 1.34.

For the compound `O=C(Nc1ccc2c(c1)OCO2)c1csc(C2CC2)n1`, the “% Inhibition” value came out at 0% and the Z score was -0.06.

For the compound `CCN1CCN(C(=O)Cn2c(C)cc(=O)n3nc(-c4cccc(C)c4)nc23)CC1`, the “% Inhibition” value is -4% and the Z score came out at 0.51.

By % Inhibition is commonly meant the relative decrease from the control value, in per cent.
